This passage reports pest or weed control results from patent publication US12642271B2, “Active compound combinations comprising a (thio)carboxamide derivative and a fungicidal compound” (Bayer CropScience Aktiengesellschaft, priority 2011, dated 2026).

Read-outs that look alike come from different tables or passages of the source.

The test system of assay [1] is Venturia inaequalis. Nature of the assay: Venturia test (apples)/preventive. The following applies: 240 h. The method, then: The test is evaluated 10 days after the inoculation.
Assay [2] has as its system Sphaerotheca fuliginea. Nature of the assay: Sphaerotheca test (cucumbers)/preventive. The following applies: Podosphaera fuliginea, 168 h, read-out: Efficacy in % found; for pest or weed control at 0.125 ppm: 0.125 ppm a.i.; for pest or weed control at 1.25 ppm: 1.25 ppm a.i. How it is done: After the spray coating has dried on, the plants are inoculated with an aqueous spore suspension of Sphaerotheca fuliginea.
The test is evaluated 7 days after the inoculation.

[3] abbreviates: read-out: Efficacy in % found, Table 2a, 0.125 ppm a.i.
Setting [4] is: read-out: Efficacy in % found, Table 2b, 0.125 ppm a.i.
Setting [5] is: read-out: Efficacy in % found, Table 2d, 0.125 ppm a.i.

`CC(C)c1ccccc1CN(C(=O)c1c(C(F)F)nn(C)c1F)C1CC1` [A1, N-cyclopropyl-3-(difluoromethyl)-5-fluoro-N-(2-isopropylbenzyl)-1-methyl-1H-pyrazole-4-carboxamide]: the pest or weed control at 0.125 ppm in assay [1] (setting [3]) stood at 0%; in assay [1] (setting [4]) it was 15%; in assay [2] (Table 4c), 0%.

For `CC(C)c1ccc(Cl)cc1CN(C(=O)c1c(C(F)F)nn(C)c1F)C1CC1` [A5, N-(5-chloro-2-isopropylbenzyl)-N-cyclopropyl-3-(difluoromethyl)-5-fluoro-1-methyl-1H-pyrazole-4-carboxamide], the pest or weed control at 0.125 ppm in assay [1] (setting [5]) and in assay [2] (Table 4d) was 0% each time.

`Cn1nc(C(F)F)c(C(=O)N(Cc2cc(Cl)ccc2C(F)(F)F)C2CC2)c1F` [A15, N-[5-chloro-2-(trifluoromethyl)benzyl]-N-cyclopropyl-3-(difluoromethyl)-5-fluoro-1-methyl-1H-pyrazole-4-carboxamide]: the pest or weed control at 0.125 ppm in assay [1] (setting [3]) is 0%; in assay [2] (Table 4c) it was 50%.

On to `Cn1nc(C(F)F)c(C(=O)N(Cc2c(Cl)cccc2C(F)(F)F)C2CC2)c1F` [A17, N-[2-chloro-6-(trifluoromethyl)benzyl]-N-cyclopropyl-3-(difluoromethyl)-5-fluoro-1-methyl-1H-pyrazole-4-carboxamide], for which, in assay [1] (setting [3]), the pest or weed control at 0.125 ppm was found to be 0%.

As to `Cn1nc(C(F)F)c(C(=O)N(Cc2c(C(F)(F)F)ccc(Cl)c2F)C2CC2)c1F` [A18, N-[3-chloro-2-fluoro-6-(trifluoromethyl)benzyl]-N-cyclopropyl-3-(difluoromethyl)-5-fluoro-1-methyl-1H-pyrazole-4-carboxamide], the pest or weed control at 0.125 ppm in assay [1] (setting [3]) and in assay [1] (setting [4]) was 0% in each case.

Regarding `CCCC1COC(Cn2cncn2)(c2ccc(Cl)cc2Cl)O1` (stereo not shown) [B1.40, propiconazole], the pest or weed control at 1.25 ppm in assay [2] (Table 4d) came out at 57%.

On to `OC(Cc1ccccc1Cl)(Cn1nc[nH]c1=S)C1(Cl)CC1` (stereo not shown) [B1.41, prothioconazole], for which, in assay [1] (setting [5]), the pest or weed control at 0.125 ppm is 78%.

Consider `CC(C)(C)C(O)(CCc1ccc(Cl)cc1)Cn1cncn1` (stereo not shown) [B1.47, tebuconazole], for which the pest or weed control at 1.25 ppm in assay [2] (Table 4d) was 0%.
